# Experimental data from ChEMBL document CHEMBL4888484, “Replenishing the malaria drug discovery pipeline: Screening and hit evaluation of the MMV Hit Generation Library 1 (HGL1) against asexual blood stage Plasmodium falciparum ,using a nano luciferase reporter read-out” (2022).
# The whole screen tested about 150,000 compounds, of which about 540 (0.36%) showed an effect of 50% or more. This is one part of the list.
# Tested on: Plasmodium falciparum
# Assay: Primary screen in NF54 nanoGlo assay, in single point, at 2uM, 72h; a lower Z score goes with more inhibition
# Format: functional, Erythrocyte
# Conditions: timepoint 72 hour
SMILES,% Inhibition [%],Z score
Cc1cnc(NC[C@H]2CCCN(Cc3ccco3)C2)nc1,-12,2.17
COc1ccc2ncn(C[C@H]3CN(C)CCN3C)c(=O)c2c1,-14,2.54
CCC(C)C(NC(=O)OC(C)(C)C)c1nnc(S(=O)(=O)Cc2ccccc2F)o1 (configuration not stated),-10,0.86
CCCOC(=O)NC[C@@H]1C[C@H](F)CN1C(=O)CCn1cc(Cl)cn1,-20,2.62
O=C1N[C@@H](c2ccc(-n3ccnc3)cc2)Nc2ccccc21,13,-1.55
CC(C)(CNC(=O)N[C@@H]1CCOc2c(F)cccc21)C1=CCOCC1,-1,0.09
Cc1nnc(N2CCC3(CC2)[C@H](O)C[C@@H]3OCCO)s1,7,-1.36
CN(Cc1ccco1)C(=O)c1cnn(-c2ccccc2)c1,0,0.02
CC(C)Cn1cnnc1[C@@H]1CCCN1Cc1cc(=O)n(C)c(=O)n1C,25,-3.28
O=C(Nc1nc(C2CC2)cs1)C1CCN(c2nccs2)CC1,-8,0.97
Cc1ccc(S(=O)(=O)NC[C@H]2OC[C@@H](NC3CCC(F)(F)CC3)[C@@H]2O)cc1,-6,0.99
CC(CN1C(C(=O)O)CC2CCCCC21)c1cccc(Cl)c1 (configuration not stated),4,-0.51
Cc1ccc2oc(C(=O)N3COCC[C@H]3c3ccccc3)cc2n1,13,-1.28
CCOC(=O)Cc1csc(NC(=O)CN2CCOCC2)n1,13,-1.85
CC(C)(NC(=O)CCc1cn[nH]c1)c1nc2ccccc2s1,-11,1.8
Cc1nc(CNC(=O)[C@@H]2CC[C@H](NS(=O)(=O)c3ccccc3C)C2)cs1,-10,2.05
CN[C@@H](C(=O)N1CCOC(C)(C)C1)c1cnn(C)c1,-2,0.31
O=C(NCCn1ccc(C(F)(F)F)n1)C1CCC1,-9,1.73
O=C(Cn1cc(-c2ccc(F)cc2)cn1)NCc1ccc(-c2ccoc2)nc1,13,-1.74
Cc1n[nH]c(C)c1CCN(C)C[C@]1(c2ccccc2)CCOC1,-1,0.2
Cc1cccc(CC(=O)Nc2cnn(-c3cccc(C(=O)N[C@@H](C)Cc4ccsc4)c3)c2)c1,19,-2.37

SMILES,% Inhibition [%],Z score
N#CCCN(C(=O)c1ccc2c(c1)CCCC2)C1CCOCC1,-9,1.26
CC(=O)c1cc(C(=O)N2CCCCC[C@H]2c2noc(C(C)C)n2)n(C)c1,-4,0.54
Cc1nc(C)c(S(=O)(=O)N[C@@H](C)c2ccc(Cl)cn2)s1,-5,0.88
Cc1noc(C)c1CC(=O)N[C@H]1CC[C@H](Oc2nccnc2C#N)CC1,-16,1.8
CC(C)c1ccc([C@@H]2CC(=O)c3c(nc4c(cnn4-c4cccc(F)c4)c3N)C2)cc1,-2,0.25
O=C(c1ccc(-c2ccccc2)cc1)N1C[C@@H](CN2CCCCC2)[C@@H](CO)C1,4,-0.59
COc1ccc(-c2nc(C)c(C(=O)N3CCC[C@H]3c3nnc4ccccn34)s2)cc1,1,-0.16
Cc1ccc(NC(=O)NC(=O)Cn2ccc(=O)c3sccc32)cc1C,34,-4.37
Cc1nc(C)c(C(=O)Nc2ccc(N3CCCC3)c3ncccc23)o1,1,-0.11
CCOC(=O)C1CCN(C(=O)CN2C(=O)COc3ccc(S(=O)(=O)N4CCOCC4)cc32)CC1,1,-0.19
C[C@@H]1COCCN1Cc1cn(Cc2cnc3ccccc3c2)nn1,5,-0.94
COc1cccc(OC)c1-c1nc(-c2ccc3nncn3c2)no1,-12,2.06
FC(F)(F)Oc1cccc(CN2CCC(c3nnc[nH]3)CC2)c1,-10,1.26
O=C(c1ccncc1F)N1CC(Cn2cncn2)C1,-1,0.19
CCCc1ccc(CN2CC[C@H](Nc3ncccn3)[C@@H](O)C2)o1,0,-0.03
CCn1ccc(C(=O)N2CCC(n3c(C)cnc3C3CCOCC3)CC2)n1,-9,1.2
O=S1(=O)CC[C@H](c2csc(-c3n[nH]c4ccccc34)n2)C1,-11,1.67
Cc1cc(Cl)cc(N)c1Br,25,-3.31
Cc1c(NC(=O)c2cc(C3CC3)on2)c(=O)n(-c2ccccc2)n1C,7,-0.78
CO[C@@]12CC[C@H](OCCO)C[C@@H]1N(C(=O)c1ccc(N(C)C)cc1)CC2,-2,0.28
